The record followed here is paper PMC2685004, “Recruitment of a SAP18-HDAC1 Complex into HIV-1 Virions and Its Requirement for Viral Replication” (PLoS Pathogens, 2009).

Chains of the proteins cited; added tags and fusions are not shown.
UniProt Q12824: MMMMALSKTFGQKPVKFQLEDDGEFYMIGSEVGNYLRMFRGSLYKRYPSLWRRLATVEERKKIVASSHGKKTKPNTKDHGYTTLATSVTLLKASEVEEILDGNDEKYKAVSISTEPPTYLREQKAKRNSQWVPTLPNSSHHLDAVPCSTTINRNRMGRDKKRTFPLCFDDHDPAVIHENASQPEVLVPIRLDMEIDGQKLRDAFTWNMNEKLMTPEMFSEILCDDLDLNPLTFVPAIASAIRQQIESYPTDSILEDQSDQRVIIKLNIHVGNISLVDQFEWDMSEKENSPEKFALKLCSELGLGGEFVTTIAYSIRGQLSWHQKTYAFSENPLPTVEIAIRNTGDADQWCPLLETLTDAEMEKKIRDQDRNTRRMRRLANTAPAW
UniProt Q13547: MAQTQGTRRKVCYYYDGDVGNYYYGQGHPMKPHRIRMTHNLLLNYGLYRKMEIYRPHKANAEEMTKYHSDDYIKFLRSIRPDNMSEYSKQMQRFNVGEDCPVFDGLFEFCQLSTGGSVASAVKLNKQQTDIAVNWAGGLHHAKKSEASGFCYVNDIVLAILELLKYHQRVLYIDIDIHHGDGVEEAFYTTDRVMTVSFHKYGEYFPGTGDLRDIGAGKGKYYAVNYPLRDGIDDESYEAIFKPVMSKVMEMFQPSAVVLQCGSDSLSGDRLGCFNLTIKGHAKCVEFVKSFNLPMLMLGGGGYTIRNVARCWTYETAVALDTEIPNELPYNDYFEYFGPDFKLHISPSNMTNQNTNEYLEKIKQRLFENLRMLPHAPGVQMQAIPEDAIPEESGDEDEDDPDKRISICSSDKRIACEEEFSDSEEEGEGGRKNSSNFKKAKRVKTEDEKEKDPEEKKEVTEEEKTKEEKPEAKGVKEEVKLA
UniProt P01106: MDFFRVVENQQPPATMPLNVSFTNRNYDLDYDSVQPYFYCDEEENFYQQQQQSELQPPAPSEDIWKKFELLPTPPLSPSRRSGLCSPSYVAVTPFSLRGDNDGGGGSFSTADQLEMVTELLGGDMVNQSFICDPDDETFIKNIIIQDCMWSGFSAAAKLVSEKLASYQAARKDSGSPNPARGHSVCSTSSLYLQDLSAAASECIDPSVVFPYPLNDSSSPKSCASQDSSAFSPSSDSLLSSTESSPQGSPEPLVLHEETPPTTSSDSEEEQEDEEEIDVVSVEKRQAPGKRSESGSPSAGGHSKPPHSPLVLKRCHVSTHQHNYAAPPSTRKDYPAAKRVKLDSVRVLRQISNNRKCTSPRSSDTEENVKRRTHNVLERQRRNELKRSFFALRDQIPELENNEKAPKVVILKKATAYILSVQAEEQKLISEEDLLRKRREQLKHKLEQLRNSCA
UniProt P51532: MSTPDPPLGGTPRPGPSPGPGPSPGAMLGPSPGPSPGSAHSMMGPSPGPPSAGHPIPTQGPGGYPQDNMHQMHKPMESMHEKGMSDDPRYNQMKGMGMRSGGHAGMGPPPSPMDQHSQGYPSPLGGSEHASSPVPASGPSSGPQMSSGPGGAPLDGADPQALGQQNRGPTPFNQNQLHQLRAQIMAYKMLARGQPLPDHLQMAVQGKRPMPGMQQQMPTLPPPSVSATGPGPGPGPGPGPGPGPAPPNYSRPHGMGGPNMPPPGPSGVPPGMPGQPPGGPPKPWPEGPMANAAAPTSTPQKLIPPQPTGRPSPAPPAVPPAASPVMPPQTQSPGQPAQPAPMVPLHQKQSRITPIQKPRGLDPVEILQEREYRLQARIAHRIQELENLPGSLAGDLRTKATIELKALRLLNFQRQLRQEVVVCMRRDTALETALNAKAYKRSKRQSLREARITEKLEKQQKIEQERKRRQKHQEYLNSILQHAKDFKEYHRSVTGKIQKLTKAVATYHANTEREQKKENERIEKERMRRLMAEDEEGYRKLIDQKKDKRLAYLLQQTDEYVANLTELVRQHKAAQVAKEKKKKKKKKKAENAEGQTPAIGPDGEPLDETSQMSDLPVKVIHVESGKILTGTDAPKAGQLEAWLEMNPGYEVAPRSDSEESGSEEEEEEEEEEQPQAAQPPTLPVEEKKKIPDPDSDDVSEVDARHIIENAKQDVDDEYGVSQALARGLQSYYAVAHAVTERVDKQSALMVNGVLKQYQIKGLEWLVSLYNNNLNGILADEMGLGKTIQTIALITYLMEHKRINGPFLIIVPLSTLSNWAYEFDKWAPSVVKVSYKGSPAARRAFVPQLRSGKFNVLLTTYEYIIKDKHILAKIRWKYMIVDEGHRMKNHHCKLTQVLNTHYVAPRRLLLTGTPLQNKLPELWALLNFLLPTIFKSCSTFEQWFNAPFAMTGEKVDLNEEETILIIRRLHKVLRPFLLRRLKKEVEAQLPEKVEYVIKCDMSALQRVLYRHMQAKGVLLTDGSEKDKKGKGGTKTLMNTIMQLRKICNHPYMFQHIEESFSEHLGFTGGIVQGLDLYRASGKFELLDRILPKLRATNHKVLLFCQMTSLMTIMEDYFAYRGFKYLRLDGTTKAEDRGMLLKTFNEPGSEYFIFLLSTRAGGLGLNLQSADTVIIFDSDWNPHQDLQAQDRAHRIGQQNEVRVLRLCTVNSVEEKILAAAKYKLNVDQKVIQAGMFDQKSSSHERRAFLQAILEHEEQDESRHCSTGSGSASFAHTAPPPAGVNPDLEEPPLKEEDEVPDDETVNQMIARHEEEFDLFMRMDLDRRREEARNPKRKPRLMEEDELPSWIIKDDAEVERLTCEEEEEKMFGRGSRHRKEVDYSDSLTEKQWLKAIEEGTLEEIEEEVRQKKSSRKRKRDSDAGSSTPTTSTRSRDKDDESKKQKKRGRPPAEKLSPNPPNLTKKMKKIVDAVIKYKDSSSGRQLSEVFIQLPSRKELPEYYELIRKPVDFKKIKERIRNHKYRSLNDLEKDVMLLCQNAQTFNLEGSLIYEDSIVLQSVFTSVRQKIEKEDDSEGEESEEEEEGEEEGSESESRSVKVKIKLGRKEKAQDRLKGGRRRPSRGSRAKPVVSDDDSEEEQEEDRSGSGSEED
UniProt Q12873: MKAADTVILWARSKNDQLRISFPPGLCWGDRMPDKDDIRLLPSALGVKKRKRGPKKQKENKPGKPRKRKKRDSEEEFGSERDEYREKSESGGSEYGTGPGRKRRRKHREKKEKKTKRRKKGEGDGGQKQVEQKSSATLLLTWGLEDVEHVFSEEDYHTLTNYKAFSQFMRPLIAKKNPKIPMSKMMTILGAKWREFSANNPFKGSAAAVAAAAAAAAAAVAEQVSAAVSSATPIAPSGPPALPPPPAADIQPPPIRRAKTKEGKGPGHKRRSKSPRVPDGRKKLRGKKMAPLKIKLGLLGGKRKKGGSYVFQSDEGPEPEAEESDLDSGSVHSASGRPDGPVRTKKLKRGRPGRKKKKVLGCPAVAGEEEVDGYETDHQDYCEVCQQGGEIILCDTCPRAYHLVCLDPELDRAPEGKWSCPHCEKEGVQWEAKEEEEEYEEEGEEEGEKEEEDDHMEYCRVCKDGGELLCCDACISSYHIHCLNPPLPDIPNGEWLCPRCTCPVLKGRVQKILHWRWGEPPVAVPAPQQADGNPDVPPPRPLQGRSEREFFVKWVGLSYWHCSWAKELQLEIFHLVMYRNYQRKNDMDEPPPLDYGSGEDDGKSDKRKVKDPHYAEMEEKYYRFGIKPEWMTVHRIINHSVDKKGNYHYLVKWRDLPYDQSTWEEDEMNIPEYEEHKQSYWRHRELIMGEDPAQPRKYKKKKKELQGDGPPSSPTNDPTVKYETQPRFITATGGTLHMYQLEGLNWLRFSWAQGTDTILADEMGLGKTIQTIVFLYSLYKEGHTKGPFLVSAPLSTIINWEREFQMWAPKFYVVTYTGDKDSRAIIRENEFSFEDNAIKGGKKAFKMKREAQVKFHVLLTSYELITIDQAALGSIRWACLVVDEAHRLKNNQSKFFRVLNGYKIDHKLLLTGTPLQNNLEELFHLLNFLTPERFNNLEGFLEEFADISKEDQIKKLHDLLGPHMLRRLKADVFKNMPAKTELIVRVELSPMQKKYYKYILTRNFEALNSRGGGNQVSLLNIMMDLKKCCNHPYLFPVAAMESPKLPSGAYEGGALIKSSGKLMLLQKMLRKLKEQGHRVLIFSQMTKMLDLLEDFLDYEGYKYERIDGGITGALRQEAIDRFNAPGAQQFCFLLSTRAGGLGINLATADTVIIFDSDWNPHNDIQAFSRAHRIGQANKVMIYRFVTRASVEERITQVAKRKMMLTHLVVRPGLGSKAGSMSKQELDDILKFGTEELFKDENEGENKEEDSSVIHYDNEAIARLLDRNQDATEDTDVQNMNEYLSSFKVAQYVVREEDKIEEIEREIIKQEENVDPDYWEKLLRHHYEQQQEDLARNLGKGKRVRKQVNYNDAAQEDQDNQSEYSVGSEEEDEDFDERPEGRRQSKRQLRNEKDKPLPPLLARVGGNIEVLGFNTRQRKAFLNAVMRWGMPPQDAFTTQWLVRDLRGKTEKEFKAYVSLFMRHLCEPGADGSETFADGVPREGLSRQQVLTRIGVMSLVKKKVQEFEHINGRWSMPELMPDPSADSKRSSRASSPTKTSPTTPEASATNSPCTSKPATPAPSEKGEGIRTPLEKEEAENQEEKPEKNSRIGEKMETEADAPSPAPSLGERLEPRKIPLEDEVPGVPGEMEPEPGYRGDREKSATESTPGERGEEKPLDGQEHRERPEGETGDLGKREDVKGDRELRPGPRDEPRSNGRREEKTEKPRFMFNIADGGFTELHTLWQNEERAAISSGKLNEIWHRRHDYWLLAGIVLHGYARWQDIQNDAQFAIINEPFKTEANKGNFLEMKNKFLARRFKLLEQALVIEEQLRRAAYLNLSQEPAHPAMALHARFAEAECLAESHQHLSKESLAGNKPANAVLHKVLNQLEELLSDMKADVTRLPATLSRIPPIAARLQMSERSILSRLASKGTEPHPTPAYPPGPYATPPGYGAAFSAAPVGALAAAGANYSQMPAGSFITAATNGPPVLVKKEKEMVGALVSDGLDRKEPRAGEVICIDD

The target of experiment [1] is T1, SAP18, endogenous in HeLa cells (human (endogenous in HeLa)) (UniProt O00422).
T1 sequence: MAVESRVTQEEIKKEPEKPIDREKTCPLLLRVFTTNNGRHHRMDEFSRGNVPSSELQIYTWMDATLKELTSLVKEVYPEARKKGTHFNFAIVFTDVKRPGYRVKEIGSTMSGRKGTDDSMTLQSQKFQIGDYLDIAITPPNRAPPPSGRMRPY
Put plainly: co-IP; confluent HeLa cells, endogenous proteins; α-SAP18 antibody or rabbit IgG, Protein A Agarose; 20 mM HEPES-KOH pH 7.9, 150 mM NaCl, 1% Triton-X, micrococcal nuclease.

Experiment [2] deals with HA-INI1/hSNF5 (in MON and HeLa cells) (human) (UniProt Q12824). In words: co-IP; MON (INI1-/-) and HeLa cells transfected with HA-INI1; α-HA or α-HDAC1 antibodies, α-6His or no antibody as controls; buffer G (dPBS, 0.1% IGEPAL), protein A sepharose, 4°C overnight.
Experiment [3] addresses FLAG-INI1 (in 293T cells) (human) (UniProt Q12824). Put plainly: co-IP; 293T cells co-transfected with FLAG-INI1 and HIV-1 viral vectors or an empty vector (or YFP-IN or pCDNA); α-FLAG antibodies, FLAG Immunoprecipitation Kit.
Experiment [4] deals with HDAC1, endogenous in MON and HeLa cells (human (endogenous in HeLa and MON)) (UniProt Q13547). Put plainly: co-IP; MON (INI1-/-) and HeLa cells transfected with HA-INI1; α-HA or α-HDAC1 antibodies, α-6His or no antibody as controls; buffer G (dPBS, 0.1% IGEPAL), protein A sepharose, 4°C overnight.
Experiment [5] has as its target T2, FLAG-SAP18 (in 293T cells) (UniProt O00422).
T2 sequence: T1 sequence
Put plainly: co-IP; 293T cells transfected with two of HA-INI1, FLAG-SAP18 and YFP-IN; α-FLAG, α-HA or α-GFP antibodies, Protein A Agarose; co-IP buffer with 150 mM NaCl, 1% Triton-X, micrococcal nuclease.

For another experiment, the target named is LexADB-cMYC (UniProt P01106). Put plainly: two-hybrid; LexADB fusions as bait, GAL4AC fusion of the HL60 cDNA library clone as prey, in yeast.
The target of the next experiment is LexADB-INI1 (human) (UniProt Q12824). Described as above.
For experiment [6], the target named is HA-INI1 (in 293T cells) (human) (UniProt Q12824). Put plainly: co-IP; 293T cells transfected with FLAG-SAP18, HA-INI1 and YFP-IN together; α-HA antibodies, Protein A Agarose; co-IP buffer with 150 mM NaCl, 1% Triton-X, micrococcal nuclease.

These are yes or no findings as the source states them, for the method shown. For some of these results: In cells and extracts the contact can be indirect. Some results given as binding are weak or reduced against the parent protein; the word gives no strength. For some of these results: Sequences can lack the tags named with a protein.

With “INI1, endogenous in HeLa cells (from UniProt Q12824 1-385)”, the binding entry in experiment [1] is reported as “binds”.
Regarding “HDAC1, endogenous in MON and HeLa cells (from UniProt Q13547 1-482) (enzyme)”, the binding entry in experiment [2] is recorded as “binds”.
In the case of “BRG1, endogenous in 293T cells (from UniProt P51532 1-1647)”, the binding result in experiment [3] is recorded as “binds”.
Consider “HA-INI1/hSNF5 (in MON and HeLa cells) (from UniProt Q12824 1-385)”, for which the binding entry in experiment [4] is reported as “binds”.
As for “BRG1, endogenous in MON and HeLa cells (from UniProt P51532 1-1647)”, the binding entry in experiment [2] is “binds”.
Regarding “HA-INI1 (in 293T cells) (from UniProt Q12824 1-385)”, the binding result in experiment [5] is reported as “binds”.
On to “HDAC1, endogenous in 293T cells (from UniProt Q13547 1-482) (enzyme)”, for which the binding entry in experiment [3] was “binds”.
With “CHD3, endogenous in MON and HeLa cells (from UniProt Q12873 1-2000)”, the binding entry in experiment [4] is “binds”; in experiment [2], “no binding”.

B1: GAL4AC fusion of SAP18 fragment (aa 45-153), clone #18829-49.1 (domain or fragment, UniProt O00422 45-153)
chain: EFSRGNVPSSELQIYTWMDATLKELTSLVKEVYPEARKKGTHFNFAIVFTDVKRPGYRVKEIGSTMSGRKGTDDSMTLQSQKFQIGDYLDIAITPPNRAPPPSGRMRPY
For the molecule B1, the results for the binding result in the experiment with LexADB-cMYC and with LexADB-INI1 (human) were “no binding” and “binds”, respectively.

B2: SAP18, endogenous in 293T cells (protein, UniProt O00422 1-153)
chain: T1 sequence
Regarding B2, the binding result in experiment [3] is recorded as “binds”.

B3: FLAG-SAP18 (in 293T cells) (protein, UniProt O00422 1-153)
chain: T1 sequence
Turning to B3, the binding entry in experiment [6] is “binds”.
